Data published in publication PMC4336329 (PLoS ONE, 2015).
The campaign covered roughly 310,000 compounds. About 14,000 (4.5%) showed an effect of 50% or more. Effects have a minus sign here. The list shows a part of the results.

Target: human ether-à-go-go-related gene (hERG) potassium channel (human, UniProt Q12809)
Assay: primary screen, population patch clamp on CHO cells stably expressing hERG
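Also: peak tail current of the secondary pulse compared with the same well before compound.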

Sequence of human ether-à-go-go-related gene (hERG) potassium channel (Q12809 whole entry, looked up): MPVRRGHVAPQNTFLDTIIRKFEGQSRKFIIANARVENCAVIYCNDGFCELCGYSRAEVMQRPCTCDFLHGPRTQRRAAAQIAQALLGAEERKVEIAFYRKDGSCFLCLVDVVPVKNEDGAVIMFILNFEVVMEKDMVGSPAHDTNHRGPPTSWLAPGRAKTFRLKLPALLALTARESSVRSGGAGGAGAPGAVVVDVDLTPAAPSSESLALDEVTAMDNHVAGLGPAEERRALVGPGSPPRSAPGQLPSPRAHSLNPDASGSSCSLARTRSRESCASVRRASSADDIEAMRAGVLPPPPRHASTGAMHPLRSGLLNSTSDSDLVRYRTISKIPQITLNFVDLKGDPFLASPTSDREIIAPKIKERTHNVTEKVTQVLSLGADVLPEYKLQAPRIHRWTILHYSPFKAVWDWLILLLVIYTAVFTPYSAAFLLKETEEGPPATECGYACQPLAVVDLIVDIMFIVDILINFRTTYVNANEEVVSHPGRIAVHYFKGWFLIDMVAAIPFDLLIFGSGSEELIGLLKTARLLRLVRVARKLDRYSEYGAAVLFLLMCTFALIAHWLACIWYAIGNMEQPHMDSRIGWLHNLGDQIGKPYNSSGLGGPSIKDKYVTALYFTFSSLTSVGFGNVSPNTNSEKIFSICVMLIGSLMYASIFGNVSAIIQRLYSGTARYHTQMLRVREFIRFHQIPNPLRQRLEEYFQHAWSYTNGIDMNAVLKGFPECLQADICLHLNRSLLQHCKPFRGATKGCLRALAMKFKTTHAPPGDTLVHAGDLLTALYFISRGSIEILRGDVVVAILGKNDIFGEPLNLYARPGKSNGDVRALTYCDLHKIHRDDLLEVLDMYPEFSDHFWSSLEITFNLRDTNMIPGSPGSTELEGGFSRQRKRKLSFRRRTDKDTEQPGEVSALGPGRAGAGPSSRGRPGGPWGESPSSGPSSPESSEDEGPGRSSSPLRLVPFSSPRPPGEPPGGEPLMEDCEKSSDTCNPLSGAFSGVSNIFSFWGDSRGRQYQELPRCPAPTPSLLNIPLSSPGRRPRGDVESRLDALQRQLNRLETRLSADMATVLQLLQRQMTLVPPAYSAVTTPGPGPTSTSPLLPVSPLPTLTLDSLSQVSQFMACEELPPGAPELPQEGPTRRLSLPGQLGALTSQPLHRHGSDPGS

SMILES	hERG current change (%, negative = inhibition) at 10uM
CCOC(=O)c1cc(C#N)c(Oc2ccccc2)nc1-c1ccccc1	0.078%
Cc1nnc(N(C(=O)c2cnccn2)c2ccccc2)s1	21.3%
O=[N+]([O-])c1ccccc1NC1CCN(Cc2ccccc2)CC1	-64.4%
O=C1C(Cl)=C(NCC2CCCO2)C(=O)N1CCc1ccccc1 (stereo not drawn)	-30.7%
Fc1ccc(/C=N/N2CCCCC2)c(F)c1	9.5%
O=C(Cn1nnc(-c2ccccc2)n1)NCc1cccs1	12.5%
COc1ccc(NC(=O)C(=O)N2N=C(C(C)C)CC2(O)C(F)(F)F)cc1 (stereo not drawn)	5.75%
COc1ccc(N2CC(C(=O)Nc3ccc(S(=O)(=O)Nc4nccs4)cc3)CC2=O)cc1 (stereo not drawn)	24%
CC(C)CCNC(=O)CCn1nc(-c2ccccc2)ccc1=O	-46.8%
COc1cccc(C(C(=O)NC(C)(C)C)N(C(=O)CCC(=O)Nc2cc(C)on2)C(C)(C)C)c1OC (stereo not drawn)	-7.81%
Cc1nn(C(C)C(=O)NC2CCCCCC2)c(=O)c2nn(-c3ccccc3)c(C)c12 (stereo not drawn)	1.8%
Cc1ccccc1NS(=O)(=O)c1cc2c3c(c1)C(C)C(=O)N3CCC2 (stereo not drawn)	-2.55%
Oc1ccc(/C=N/Nc2nc(-c3cccnc3)nc3ccccc23)c(O)c1	-2.97%
CC(CNC(=O)c1ccccc1Cl)NC(=O)c1ccccc1Cl (stereo not drawn)	11.2%
CCOCCCNC(c1ccccc1)c1ccncc1 (stereo not drawn)	14.5%
Cn1nccc1C(=O)N1CCOCC1	5.59%
CN(c1ccc(C(=O)NC2CC2)cc1)S(=O)(=O)c1ccccc1	-9.85%
Cc1c(NC(=O)C(C)N2C(=O)NC3(CCC(C)CC3)C2=O)c(=O)n(-c2ccccc2)n1C (stereo not drawn)	18.9%
CC(Cc1ccccc1)C(=O)Nc1ccc(Br)cc1 (stereo not drawn)	-1.21%
Cc1ccc(NC(=O)CN2C(=O)S/C(=C\c3ccc(OCC(=O)O)c(Br)c3)C2=O)cc1	23%

SMILES	hERG current change (%, negative = inhibition) at 10uM
CC(/C=C/c1ccccc1)=N/NC(=O)CCC(=O)Nc1ccccc1C	7.67%
CCc1ccccc1Nc1nc2ccccc2n1C(C)C	8.91%
Cc1nn(CCC(=O)NNC(=S)Nc2ccccc2)c(C)c1Br	14.2%
COc1cc(/C=N\NC(=O)c2ccc(C)nc2)ccc1OC(=O)c1ccco1	-33.1%
O=C(NCC1CC1(Cl)Cl)Nc1ccc(Cl)c(Cl)c1 (stereo not drawn)	8.32%
Cc1cccc2cc(=O)[nH]c(C)c12	15.6%
NC(=O)c1c(NC(=O)C2CCCO2)sc2c1CCC2 (stereo not drawn)	-11.2%
CC(C)(SC(=S)N1CCCCCC1)C(=O)O	24.3%
O=C(Nc1ccccc1)c1ccc2c(c1)OCCCO2	-10.7%
COc1ccccc1CNC(=O)C1CCCN(c2cnccn2)C1 (stereo not drawn)	3.45%
O=C(NCCc1ccccc1)C1(c2ccccc2)CCCC1	1.72%
COc1ccc(Cl)c2sc(NC(=O)C3=COCCO3)nc12	7.86%
CC(NC(=O)c1cccs1)c1ccc2c(c1)OCO2 (stereo not drawn)	-16.1%
CC(=O)Nc1ccc2c(c1)C(=O)N(C1CCCCC1)C2=O	-1.04%
CN(CCc1cnn(C)c1)C(=O)CCc1nnc(CCCc2ccccc2)o1	12.4%
O=C(c1cc2ccccc2o1)N1CCN(Cc2ccc3c(c2)OCO3)CC1	-22.1%
O=C(O)CN1CCN(Cc2ccc(F)cc2Cl)C1=O	-2.06%
COc1cc(NC(=S)NC(=O)c2ccccc2C)ccc1NC(=O)c1cccs1	-1.24%
Cn1nc(-c2ccccc2)cc1NS(=O)(=O)c1ccccc1	-5.88%
CCNc1nc(SC(C(C)=O)C(C)=O)nc(N(C)C)n1	12.5%

SMILES	hERG current change (%, negative = inhibition) at 10uM
Cc1ccc(NS(=O)(=O)c2cccc(C(=O)NNC(=O)c3ccco3)c2)c(C)c1	-2.38%
Cc1nc(N)c(C#N)c(-c2cccnc2)c1C	-6.62%
COCCN(C(=S)Nc1cccc(C)c1C)C(C)c1ccco1 (stereo not drawn)	-1.08%
CNC(=O)c1cc(-c2ccc(Cl)cc2)n(-c2ccccc2)n1	4.41%
CCc1nn(C)c(-c2n[nH]c(=S)n2N)c1Cl	21%
O=C1CN(C(=O)c2c(F)cccc2F)C(c2ccc(F)cc2)c2cc(F)ccc2N1 (stereo not drawn)	-24.6%
CCCC(c1nnnn1Cc1ccc(F)cc1)N1CCN(C)CC1 (stereo not drawn)	-2.88%
COc1ccccc1NC(=O)Cn1c(=O)oc2ccccc21	4.67%
Cc1cccc(NC(=O)CN(C2=NC3CS(=O)(=O)CC3S2)c2ccccc2F)c1 (stereo not drawn)	10.1%
CNc1nc(NCc2ccccc2)c2ccccc2n1.Cl	-68.1%
CN(C)c1ccc(NC(=O)CSc2nnc(C3CCCCC3)n2N)cc1	16.6%
C=CCNC(=O)CN1N=C(c2ccc(C)cc2)CCC1=O	-44.3%
Cc1cccc(N2CCN(C(=O)Cc3ccc(-n4c(=O)[nH]c5ccsc5c4=O)cc3)CC2)c1C	0.15%
COc1ccccc1NC(=O)CCN1C(=O)C2CC=C(Cl)CC2C1=O (stereo not drawn)	-2.46%
Nc1sc2c(c1C(=O)NC1CCS(=O)(=O)C1)CCCC2 (stereo not drawn)	19.1%
O=C(NCc1ccc(F)cc1)c1cc(S(=O)(=O)N2CCCCC2)ccc1N1CCOCC1	-33.4%
O=S(=O)(c1ccc(Br)cc1)N1CCN(Cc2ccco2)CC1	-27.7%
Cc1ccsc1/C=C1/CN(C)Cc2c1nc1ccccc1c2C(=O)O.Cl	13.3%
N#CCSc1nc2ccccc2c(=O)n1CC1CCCC1	46.7%
CN1CCN(Cc2nc3c(c(=O)[nH]c(=O)n3C)n2Cc2c(F)cccc2Cl)CC1	-1.86%
